# Data published in PubChem BioAssay AID652104 (National Center for Advancing Translational Sciences (NCATS), 2013).
# Among all 410,000 compounds or so, about 7,200 (1.8%) were called active. This list was built around the results that the source calls inconclusive (neither active nor inactive); the mix of calls is not that of the screen. Calls come from the whole dose curve; as a rule, active = well fitted activation curve with a large enough effect; inconclusive = small, poorly fitted or top-dose-only effect, or another doubt; inactive = no such curve, though single readings can be large or run the other way. No potency is given beside an inconclusive call; the fits are too rough.
# Assay: qHTS of TDP-43 Inhibitors; note: nearly all actives have a fitted effect of over 50% in size
# Conditions: TDP-43 expressing yeast growth rescue, BacTiter-Glo, 24 h; series mostly up to 46.1 µM
# Summary of the method: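 Cell-based yeast growth screen: TDP-43 expression induced in galactose, inoculum OD600=0.02 after raffinose pregrowth to mid-log. Read-out BacTiter-Glo luminescence at 24 hr, 30 deg C; inhibition of toxicity seen as signal increase.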
# Potency is the fitted concentration of half-maximal effect; tags give direction and shape of the fitted curve.
row,Compound,Potency
1,CCOC(=O)c1nc(N2CCN(C(=O)OCC)CC2)c2c3c(sc2n1)CCCC3,inactive
2,CC1(CCc2ccc3c(c2)OCO3)NC(=O)c2ccccc2N1 (configuration not stated),inactive
3,COc1ccc(/C=C(/C#N)c2cccnc2)cc1OC,"inconclusive [activator, full curve]"
4,Cn1ncc2c(NCc3ccccc3)nc(NCCCO)nc21,inactive
5,COc1cc(OC)c(NC(=O)C2=C(C)C(=O)OC23CCCCC3)cc1Cl,"inconclusive [activator, single point]"
6,CN(C)S(=O)(=O)N(CCN1CCOCC1)Cc1ccccc1F,inactive
7,CCOC(=O)c1ccc(N2CCOCC2)c(NC(=O)c2ccc3c(c2)OCO3)c1,"inconclusive [activator, partial curve]"
8,O=c1cc(-c2ccccc2)n2c(SCc3ccc([N+](=O)[O-])cc3)nnc2[nH]1,"inconclusive [activator, single point]"
9,CCCOc1ccc(-c2nnc(N)s2)cc1,"inconclusive [activator, partial curve]"
10,Oc1c(Br)cc(Br)cc1CNc1cccc2cccnc12,active: 17.8 µM
11,Oc1c(Cl)cc(CN2CCOCC2)c2cccnc12,"inconclusive [activator, single point]"
12,Cc1cccc(N2C(=O)CS(=O)(=O)C23C(=O)N(C)c2ccccc23)c1 (configuration not stated),inactive
13,COc1ccc(NC(=O)c2cc(CN3C(=O)c4ccccc4C3=O)ccc2OC)cn1,inactive
14,Cc1ccccc1Nc1ncnc2c1c(-c1ccccc1)cn2-c1ccc(F)cc1,"inconclusive [activator, partial curve]"
15,OCc1cnc(SCc2cccc(F)c2)n1Cc1ccc(F)cc1,inactive
16,COc1ccc(CNC(=O)Cn2nc(C(F)(F)F)c(Br)c2C)cc1,"inconclusive [activator, partial curve]"
17,COc1cc(CN2C(=O)C(CCc3ccccc3)ON=C2c2cnccn2)cc(OC)c1 (configuration not stated),active: 35.5 µM
18,O=C1CC(=O)N(c2ccccc2)c2ccccc21,"inconclusive [activator, full curve, poor fit]"
19,Fc1ccc(-n2ncc3c(SCc4cccnc4)ncnc32)cc1,"inconclusive [activator, partial curve]"
20,Cc1cccc(NC(=S)NCCc2ccc3c(c2)OCCO3)c1C,"inconclusive [activator, single point]"
21,Cc1cc(C(F)(F)F)n(-c2nc(C(=O)Nc3cccnc3)cs2)n1,active: 22.4 µM
22,CC(C)(C)c1ccc(C(=O)NC2CCN(Cc3ccccc3)CC2)cc1,inactive
23,CC(OC(=O)/C=C/c1ccccc1)C(=O)Nc1ccc2c(c1)OCCO2 (configuration not stated),inactive
24,Cc1c(NC(=O)OCc2ccccc2)c(=O)n(-c2ccccc2)n1C,"inconclusive [activator, partial curve]"

row,Compound,Potency
1,Cc1nc(C)c(-c2csc(NCc3ccco3)n2)s1,inactive
2,CCC(Oc1ccccc1)C(=O)Nc1ncc([N+](=O)[O-])s1 (configuration not stated),inactive
3,COc1cccc(OCc2nc3ccccc3n2CCOc2ccccc2C)c1,"inconclusive [activator, partial curve]"
4,COC(=O)[C@@]12CCCN1[C@H](c1ccc(-c3ccc(Cl)c(Cl)c3)c(OC)c1)[C@H]1C(=O)N(C)C(=O)[C@H]12,"inconclusive [activator, single point]"
5,O=C(C1CC1)N1CCN(c2nc3ccc(F)cc3s2)CC1,"inconclusive [activator, partial curve, poor fit]"
6,Cc1nnc2sc(SCc3cccc(Cl)c3)nn2c1=O,"inconclusive [activator, single point]"
7,CC(=O)c1ccc(NC(=O)CCc2c(C)nc3cc(-c4ccc(Cl)cc4)nn3c2C)cc1,inactive
8,CCOC(=O)c1[nH]c2ccccc2c1NC(=O)CC(C)C,"inconclusive [activator, single point]"
9,CCN(CC)C(=O)[C@H]1CC(CC(=O)NC/C=C(\C)CCC=C(C)C)C(=O)N2CCc3c([nH]c4ccc(OC)cc34)[C@]12C (some centres not stated),"inconclusive [activator, single point]"
10,Cc1c(-c2nsc(NC(=O)c3cccs3)n2)nnn1-c1ccc(Br)cc1,inactive
11,Fc1ccc(CSc2ncnc3nc[nH]c23)cc1,"inconclusive [activator, partial curve]"
12,CSC1=NSC2=NC(=O)/C(=C\c3coc4ccccc4c3=O)C(=N)N12,inactive
13,CCC1CN(C(=O)Nc2cc(C)cc(C)c2)c2ccccc2O1 (configuration not stated),"inconclusive [activator, partial curve]"
14,CN1C(C(=O)NCc2cccc(Br)c2)CC2Cn3c(nc4cc(Cl)c(Cl)cc43)C21 (configuration not stated),"inconclusive [activator, partial curve]"
15,COc1cccc(-c2csc(NC(C)=O)n2)c1,"inconclusive [activator, partial curve]"
16,Cc1ccc(S(=O)(=O)N(C)c2ccc(OCc3cccc(C)c3)cc2)cc1,inactive
17,COC(=O)CC1Oc2ccccc2N(Cc2ccccc2)C1=O (configuration not stated),"inconclusive [activator, partial curve]"
18,CC(C)Cc1ccc(C(=O)NCc2ccc3c(c2)OCO3)o1,active: 14.1 µM
19,c1ccc(NCCSc2nc3ccccc3s2)cc1,"inconclusive [activator, partial curve]"
20,Cc1ccc(S(=O)(=O)N2[C@@H](c3ccccc3)C(C(=O)O)=CC[C@H]2c2cccc(C)c2)cc1,"inconclusive [activator, single point]"
21,O=C(NCc1ccccc1Cl)C1CCCN(c2ncnc3onc(-c4ccc(F)cc4)c23)C1 (configuration not stated),"inconclusive [activator, partial curve, poor fit]"
22,CCCOc1cccc(-c2cc(-c3n[nH]c(=S)n3CC)c3ccccc3n2)c1,"inconclusive [activator, single point]"
23,CCC(=O)N1CCCC(C(=O)Nc2ccc3cn[nH]c3c2)CC1 (configuration not stated),"inconclusive [activator, full curve, poor fit]"
